Data published in publication PMC7819943, “Rice protein-binding microarrays: a tool to detect cis-acting elements near promoter regions in rice”.
Some of the results follow.

Molecular target: T1, OsWOX13 (Oryza sativa, UniProt Q5QMM3 1-267)
T1 sequence: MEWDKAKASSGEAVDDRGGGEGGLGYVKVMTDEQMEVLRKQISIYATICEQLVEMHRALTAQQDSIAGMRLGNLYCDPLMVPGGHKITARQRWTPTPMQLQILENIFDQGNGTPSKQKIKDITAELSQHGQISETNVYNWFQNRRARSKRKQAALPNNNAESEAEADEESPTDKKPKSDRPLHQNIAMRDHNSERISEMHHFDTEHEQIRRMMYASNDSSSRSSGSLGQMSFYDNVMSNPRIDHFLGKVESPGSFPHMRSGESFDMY
Experiment: protein-binding microarray (RPBM); PBS, 2% BSA, 51.3 ng/ul salmon testes DNA, 50 uM zinc acetate, 200 nM TF, 25 C, 1 h; high values mean tight binding
Details: protein: recombinant; tags: N-terminal polyhistidine and DsRed monomer fusion (pET32a); label: CyDye5-dUTP incorporated in the synthesized complementary strand; 3' TTTTT single-stranded linker to array surface; dsDNA, one strand shown
Method in brief: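 A custom Agilent array was converted to double-stranded form by primer extension with Cy5-dUTP and blocked with 2% BSA. Protein at 200 nM in PBS with 2% BSA, salmon testes DNA and 50 µM zinc acetate was applied for 1 h at 25 °C, followed by washing. The proteins were polyhistidine–DsRed N-terminal fusions of transcription factors, expressed in E. coli BL21-CodonPlus and Ni–NTA-purified. The binding signal is per-feature fluorescence intensity (arbitrary units) from an Axon 4000B scanner.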

Sequence | binding signal
CTTAATTGCTCAGGGATATCTGTTCTTTGATTAATCCTGGCGGAGTCACCTAGTGCAG | 30600 fluorescence intensity (a.u.)
AGAATAATTATCATCCACACCACTAAAATCCATCACCTCCCGGAGTCACCTAGTGCAG | 26200 fluorescence intensity (a.u.)
TTAGATTTAAACTTAAGACATTGATGAACTAAGGAATTTTCGGAGTCACCTAGTGCAG | 3570 fluorescence intensity (a.u.)
ACAATCTTATAGCTAATTTATTATATATGTTAGCTTTAAGCGGAGTCACCTAGTGCAG | 4320 fluorescence intensity (a.u.)
AAGACTCCTTTGACTTAAATTACTGGGCGGATTAGGATTACGGAGTCACCTAGTGCAG | 3200 fluorescence intensity (a.u.)
GTTGATTTGGTCATCATCCAACGCCGGCCAGGCTCGCCAGCGGAGTCACCTAGTGCAG | 30900 fluorescence intensity (a.u.)
TATAAATTTATTTAACTTAAGGAAATATTAACAAGTACAACGGAGTCACCTAGTGCAG | 9220 fluorescence intensity (a.u.)
CACGATGGTAATTAACCACCCCTTGGCGCTTTTCGGCCCCCGGAGTCACCTAGTGCAG | 7630 fluorescence intensity (a.u.)
GCTTGGATTGGTCTGAACATCGGTGACAGTGGAGAAGACGCGGAGTCACCTAGTGCAG | 3780 fluorescence intensity (a.u.)
AACAATTCAATCATTTATGAGATAAACGGTTGTTTTCTACCGGAGTCACCTAGTGCAG | 19400 fluorescence intensity (a.u.)
AGTTGCAAATTGATCAAGGCATAATTTCAGGCTTACAGCTCGGAGTCACCTAGTGCAG | 19000 fluorescence intensity (a.u.)
TTGTGTGTGCGTTTGTGATTGCGTCGGTCGGTTTCAGTTCCGGAGTCACCTAGTGCAG | 3980 fluorescence intensity (a.u.)
TCCCTAAATAGGGGCAATTGCAAATTTACCACTACTTTGACGGAGTCACCTAGTGCAG | 3170 fluorescence intensity (a.u.)
TTTGCGAAATTAATTATTCAGTGTTCTCCATAACACAATCCGGAGTCACCTAGTGCAG | 10500 fluorescence intensity (a.u.)
AAATTGTTGATTGATAACGACCAAAACCTACGGAGGAGCGCGGAGTCACCTAGTGCAG | 28000 fluorescence intensity (a.u.)
CCGAAATTTGTCTCTTAATCATATACCGCACTTTCTGCCACGGAGTCACCTAGTGCAG | 16100 fluorescence intensity (a.u.)
GTACGATTGAATATTTATCGCAATTCATTTATCTAGTCATCGGAGTCACCTAGTGCAG | 13400 fluorescence intensity (a.u.)
TATTAATTTAATAAAATTAATTTGGTAATGTAAATATTATCGGAGTCACCTAGTGCAG | 15600 fluorescence intensity (a.u.)
CAGAATTGAAGAACTCAGGGAGCGTGTGGAGTGCAATATCCGGAGTCACCTAGTGCAG | 3360 fluorescence intensity (a.u.)
AATAATAATTAGATAAGGGTGATGTACTCGAGTATCTTCCCGGAGTCACCTAGTGCAG | 16100 fluorescence intensity (a.u.)
TATTAATTGGATAAAGTCATCTATATTAATGTGGATAATACGGAGTCACCTAGTGCAG | 17600 fluorescence intensity (a.u.)

Sequence | binding signal
GCCCTAGATTGTGTAACAAGGTGGCAGACTGTTTAGCCGCCGGAGTCACCTAGTGCAG | 3540 fluorescence intensity (a.u.)
CTTCAATGTTAATTGGAAGTAACTTTTGCATGGTTCAGAACGGAGTCACCTAGTGCAG | 6760 fluorescence intensity (a.u.)
ATTTCCATCCATGATTGACGCCCTTCCTAAAACCAAGTTGCGGAGTCACCTAGTGCAG | 32000 fluorescence intensity (a.u.)
CAAATATATTATAAAATTGCATTTAATAAAACTTATTTGGCGGAGTCACCTAGTGCAG | 3450 fluorescence intensity (a.u.)
GAATAAAATAATTTGCCTTCAATCTATGCAATCATTGCTGCGGAGTCACCTAGTGCAG | 15100 fluorescence intensity (a.u.)
TCTGGTTCGTCAATTGATGATGGATGGATGCTCTCCTTGTCGGAGTCACCTAGTGCAG | 9860 fluorescence intensity (a.u.)
GTGCTGAATTAATCACGCGAGGATTAAATATAGGAATACGCGGAGTCACCTAGTGCAG | 8600 fluorescence intensity (a.u.)
TAAGTCATATAAAATTAATTCAATTTTATGTTAATCCCTTCGGAGTCACCTAGTGCAG | 6270 fluorescence intensity (a.u.)
AGAAAATTGGCATATGGGGCCATGGGTATTACTTACTTTTCGGAGTCACCTAGTGCAG | 12500 fluorescence intensity (a.u.)
CTCTAATTTATCTATAGCCAACCTAATAGCTCATTAATACCGGAGTCACCTAGTGCAG | 18900 fluorescence intensity (a.u.)
TATTAACTGTATTAGTTAAGCAGGGTTCACAAATTTGTTCCGGAGTCACCTAGTGCAG | 3890 fluorescence intensity (a.u.)
TGATGACCGAGTCAAATTAGCCACGTAGACGCCACATCAGCGGAGTCACCTAGTGCAG | 3370 fluorescence intensity (a.u.)
AAATGTTAAATTGTAATTAAATCAACACTTTGACTGTCAGCGGAGTCACCTAGTGCAG | 19400 fluorescence intensity (a.u.)
GGAATAATTTCTGGGAACTCCTTTTCAGGAAATATTCGAGCGGAGTCACCTAGTGCAG | 4350 fluorescence intensity (a.u.)
ATATAAGATCAATTATTAACAATATAGTATATATTTATAGCGGAGTCACCTAGTGCAG | 4040 fluorescence intensity (a.u.)
AGATGATTGTGTTAGTGCAACTATTTTGTGGATCGCTAAGCGGAGTCACCTAGTGCAG | 27200 fluorescence intensity (a.u.)
AGGGGTATTAATTAAACTGCTGTAGACGGCCGGTCACACTCGGAGTCACCTAGTGCAG | 11200 fluorescence intensity (a.u.)
ATACTAATTAGAAGTATTAAAGGTGGACTATAGACAAAACCGGAGTCACCTAGTGCAG | 17000 fluorescence intensity (a.u.)
ATGGATGACTGTGATATGATATCTTACACATCAATGATAGCGGAGTCACCTAGTGCAG | 7720 fluorescence intensity (a.u.)
GTAGGTGACACTTCCAAATTGGACAGAACAGAGCTCAGTGCGGAGTCACCTAGTGCAG | 3280 fluorescence intensity (a.u.)
ATCTGATGGAAAATGGCTAAGATTTAATGAATCAGAAACACGGAGTCACCTAGTGCAG | 3850 fluorescence intensity (a.u.)

Sequence | binding signal
GACACTGGGTAAATTATTCAATTCTAACTAAATTATATGACGGAGTCACCTAGTGCAG | 4590 fluorescence intensity (a.u.)
TCCGATTGATTACCTTCTATAAATACCTCACCCCACCCCTCGGAGTCACCTAGTGCAG | 57600 fluorescence intensity (a.u.)
ATAATTAAAACTCAATTAATCACACGTTATTATCACATCGCGGAGTCACCTAGTGCAG | 14200 fluorescence intensity (a.u.)
AATTAACTGTGCTTAATTAACCCTACTGTTTACATCCGTGCGGAGTCACCTAGTGCAG | 35500 fluorescence intensity (a.u.)
TTCCTGGAACCAATCAGCAGCTAAAAGTCAATCCACGCCACGGAGTCACCTAGTGCAG | 16100 fluorescence intensity (a.u.)
CTGCAATCACATTATTATCGCATGTAAATATATATATGGACGGAGTCACCTAGTGCAG | 8740 fluorescence intensity (a.u.)
GCCAAGTTAATCAATCAAAATCATCCACCAACTGGTGCAGCGGAGTCACCTAGTGCAG | 26300 fluorescence intensity (a.u.)
TCGTTGTAATAATTTGATTTCTTTTGCAGACGGTCTTTATCGGAGTCACCTAGTGCAG | 5300 fluorescence intensity (a.u.)
TTCTCTGATTACCAAATATATGGGGCAAAATTTGTGTTAACGGAGTCACCTAGTGCAG | 24700 fluorescence intensity (a.u.)
GAAAGAGAGATTGACAAGTGGGACCATGGGCAAACTTATCCGGAGTCACCTAGTGCAG | 8990 fluorescence intensity (a.u.)
GAAATTCAAATTATACCAATTTAAATAGTTGGGATCAACACGGAGTCACCTAGTGCAG | 5400 fluorescence intensity (a.u.)
TGGTAATTGGAAGAGAATTCCTCCATTACTTTCCTAAACACGGAGTCACCTAGTGCAG | 31000 fluorescence intensity (a.u.)
CCAGATTTAATTTCACTTGCAATCTGTGATTCTTCTGGTGCGGAGTCACCTAGTGCAG | 35300 fluorescence intensity (a.u.)
CAAAATTATTCGTAAACGAATAATTGGTTCATATTCGATCCGGAGTCACCTAGTGCAG | 24400 fluorescence intensity (a.u.)
CATGATTCCATCAACATCTAGCTGTTGATGGCCCCTCTGTCGGAGTCACCTAGTGCAG | 6100 fluorescence intensity (a.u.)
CCACCAGTTTAATTATTCTATTGTACCTGCTCTATTATATCGGAGTCACCTAGTGCAG | 5550 fluorescence intensity (a.u.)
ACCATTACATCCAGTAATTTATATTATTATATACCTTGAACGGAGTCACCTAGTGCAG | 6320 fluorescence intensity (a.u.)
CAACCCTTAATTTAATCCAGATCCCCAACCAAACCCACTCCGGAGTCACCTAGTGCAG | 6540 fluorescence intensity (a.u.)
GGTTTCTAATCAACACATACATGGGCCGCGTGATTCTTGCCGGAGTCACCTAGTGCAG | 6440 fluorescence intensity (a.u.)
TTTTCAGATTGATAGAGTGGCTGGAGCAGGAACAGATTTTCGGAGTCACCTAGTGCAG | 15000 fluorescence intensity (a.u.)
AATCAGCTCTAAATTTAAATTGTGGCTGATAAATACGAGTCGGAGTCACCTAGTGCAG | 4450 fluorescence intensity (a.u.)

Sequence | binding signal
TACCGCTCAAAATCTAATAATTGATATTATTGCATTGTACCGGAGTCACCTAGTGCAG | 5920 fluorescence intensity (a.u.)
CGTCATAATTACCGGCTTTCCTTCCTTGCCCGGTTACCCCCGGAGTCACCTAGTGCAG | 19700 fluorescence intensity (a.u.)
TGTCATGTTTATTATCTTAATTTTCTGGATTAAAATATACCGGAGTCACCTAGTGCAG | 5770 fluorescence intensity (a.u.)
ATCAAAATTGAGGAGTTTCTATCAGGCTGTCTGCTCCTGTCGGAGTCACCTAGTGCAG | 5210 fluorescence intensity (a.u.)
GGATCAGTTTAATTACAAGGTTGTCTGATCTATATATTGCCGGAGTCACCTAGTGCAG | 4260 fluorescence intensity (a.u.)
CCTGATGAACAGGTGAACACAAGAAACCCAGGACCAAAATCGGAGTCACCTAGTGCAG | 5250 fluorescence intensity (a.u.)
TTTGACTTATAAATGACTCTATGGTTTAGCCACTTACACCCGGAGTCACCTAGTGCAG | 4060 fluorescence intensity (a.u.)
CAATATACTAACAAATTGTGACATGTCTAAGGTTTGGCATCGGAGTCACCTAGTGCAG | 3210 fluorescence intensity (a.u.)
TGTGTCTTGATTAATTTTCTGTGAGCTCTTCATCTGGTCTCGGAGTCACCTAGTGCAG | 23600 fluorescence intensity (a.u.)
CAAAATTGACGAACTGGATTTACTGTTTATAAATGAAAACCGGAGTCACCTAGTGCAG | 41200 fluorescence intensity (a.u.)
GGTGCATGTATTGTATTAATTGGATTGATTCAAACAAAGACGGAGTCACCTAGTGCAG | 12500 fluorescence intensity (a.u.)
TAAAATTACATATGTAATTTTAGGGACTTACAATGTAAATCGGAGTCACCTAGTGCAG | 19900 fluorescence intensity (a.u.)
TACAAATTTCAATTCCATATACATCAAAAGATTCGGCGCACGGAGTCACCTAGTGCAG | 6080 fluorescence intensity (a.u.)
ACTACCAATTAGTAGTAGCAAACGTACCATAGATGCATATCGGAGTCACCTAGTGCAG | 6860 fluorescence intensity (a.u.)
AAAGATTGAAACTCTGAACATTTAGGACAACGAACATCATCGGAGTCACCTAGTGCAG | 14000 fluorescence intensity (a.u.)
GTAAAATTGATGTTACTATATTTGTCATTAAACATAGTAGCGGAGTCACCTAGTGCAG | 21000 fluorescence intensity (a.u.)
TTGTCCATCAATGGAGATGATGATGCCATGATCAAATGATCGGAGTCACCTAGTGCAG | 5820 fluorescence intensity (a.u.)
CGTAATTTTGAATTGTTAGATCTATTATAAGATTTGTTTTCGGAGTCACCTAGTGCAG | 20800 fluorescence intensity (a.u.)
ATATATTGTTTATTCAATTTATTTTCAAGAATATTCAGGACGGAGTCACCTAGTGCAG | 5920 fluorescence intensity (a.u.)
TTGTCTGTAAATCTATAATTGATACGGAGTACAAAGTGTTCGGAGTCACCTAGTGCAG | 12100 fluorescence intensity (a.u.)
GGATACTAATTTGGAGTATTAAACATACACTAATTACAAACGGAGTCACCTAGTGCAG | 3820 fluorescence intensity (a.u.)
